According to the supplement of paper PMC4604168 (melanoma cell lines):
The other results are listed elsewhere or left out. Repeats are few or missing, and single values can be far off.

Legend:
Experiment in all cases: cell count relative to DMSO control; melanoma cells; higher = more viable cells
Conditions in all cases: library dose: low library concentration; 72 h
WM115 = tested on: WM115
WM1716 = tested on: WM1716
WM1745 = tested on: WM1745
WM3526 = tested on: WM3526
WM3619 = tested on: WM3619
WM451Lu = tested on: WM451Lu
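Note: cell number obtained by counting DAPI-stained nuclei in high-throughput microscope images with image analysis software, screen run in 1,536-well plates.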

Structure (SMILES) | cell count (WM115) | cell count (WM1716) | cell count (WM1745) | cell count (WM3526) | cell count (WM3619) | cell count (WM451Lu)
O=C(O)c1ccc(-c2c[nH]c3ncc(-c4ccccc4)cc23)cc1C1CCCC1 + CCc1ccc(CCOc2ccc(CC3SC(=O)NC3=O)cc2)nc1 [pioglitazone] (first compound 0.16 µM, partner dose 2 µM) | 98.9% | 100% | 70.1% | 86.5% | 103% | 91.6%
O=c1[nH]nc(Sc2ncc([N+](=O)[O-])s2)n1-c1ccc2c(c1)OCCO2 + C[C@@H](Oc1cc(-c2cnn(C3CCNCC3)c2)cnc1N)c1c(Cl)ccc(F)c1Cl [Crizotinib] (first compound 0.2 µM, partner dose 0.2 µM) | 113% | 119% | 103% | 107% | 99.1% | 119%
Cn1cncc1[C@@](N)(c1ccc(Cl)cc1)c1ccc2c(c1)c(-c1cccc(Cl)c1)cc(=O)n2C [tipifarnib] + COC(=O)c1sccc1S(=O)(=O)Nc1ccc(Nc2ccccc2)cc1OC [GSK0660] (first compound 0.01 µM, partner dose 1 µM) | 88% | 68.6% | 109% | 86.4% | 102% | 87.1%
O=c1[nH]nc(Sc2ncc([N+](=O)[O-])s2)n1-c1ccc2c(c1)OCCO2 + CN(NC(=O)CC(=O)NN(C)C(=S)c1ccccc1)C(=S)c1ccccc1 [STA4783] (first compound 0.2 µM, partner dose 0.006 µM) | 89.1% | 82% | 59.8% | 83.4% | 75% | 91.6%
C[C@@H]1CCN(C(=O)CC#N)C[C@@H]1N(C)c1ncnc2[nH]ccc12 + Oc1cc(-c2nc(-c3ccccc3)[nH]c2-c2ccncc2)ccc1Cl [L779450] (first compound 1 µM, partner dose 0.2 µM) | 86.4% | 114% | 88% | 69.1% | 111% | 103%
O=c1[nH]nc(Sc2ncc([N+](=O)[O-])s2)n1-c1ccc2c(c1)OCCO2 + Cn1c(=O)n(-c2ccc(C(C)(C)C#N)cc2)c2c3cc(-c4cnc5ccccc5c4)ccc3ncc21 [NVP-BEZ235] (first compound 0.2 µM, partner dose 0.004 µM) | 99.6% | 101% | 93.5% | 79.8% | 76% | 93.9%
O=C(O)c1ccc(-c2c[nH]c3ncc(-c4ccccc4)cc23)cc1C1CCCC1 + N#Cc1c(O)c2c(-c3ccc(-c4ccccc4O)cc3)csc2[nH]c1=O [A769662] (first compound 0.16 µM, partner dose 2 µM) | 88% | 105% | 101% | 90.8% | 106% | 61.1%
COc1cc(Nc2ncc(F)c(Nc3ccc4c(n3)NC(=O)C(C)(C)O4)n2)cc(OC)c1OC [Tamatinib] + COc1cc2c(Oc3ccc4[nH]c(C)cc4c3F)ncnc2cc1OCCCN1CCCC1 [cediranib] (first compound 0.4 µM, partner dose 0.4 µM) | 91.4% | 91.4% | 80% | 93.5% | 93.2% | 87.2%
CC1(C)NC(=O)N(c2ccc([N+](=O)[O-])c(C(F)(F)F)c2)C1=O [nilutamide] + CN(NC(=O)CC(=O)NN(C)C(=S)c1ccccc1)C(=S)c1ccccc1 [STA4783] (first compound 1 µM, partner dose 0.006 µM) | 96.7% | 74.2% | 58.7% | 85.3% | 51% | 87.5%
Cn1cncc1[C@@](N)(c1ccc(Cl)cc1)c1ccc2c(c1)c(-c1cccc(Cl)c1)cc(=O)n2C [tipifarnib] + NCC(=O)Nc1ccc(-n2nc(C(F)(F)F)cc2-c2ccc3c(ccc4ccccc43)c2)cc1 [OSU03012] (first compound 0.01 µM, partner dose 1 µM) | 88.9% | 76.2% | 93.3% | 52% | 112% | 49.2%
O=C(O)c1ccc(-c2c[nH]c3ncc(-c4ccccc4)cc23)cc1C1CCCC1 + Cc1cc([N+](=O)[O-])ccc1NS(=O)(=O)c1cc(Cl)ccc1Cl [FH535] (first compound 0.16 µM, partner dose 1 µM) | 79% | 93.6% | 86.1% | 73.7% | 106% | 90%
C[C@@H]1CCN(C(=O)CC#N)C[C@@H]1N(C)c1ncnc2[nH]ccc12 + COc1cc2c(Oc3ccc4[nH]c(C)cc4c3F)ncnc2cc1OCCCN1CCCC1 [cediranib] (first compound 1 µM, partner dose 0.4 µM) | 120% | 97.9% | 75.4% | 28.6% | 98.6% | 89.9%
COc1cc(Nc2ncc(F)c(Nc3ccc4c(n3)NC(=O)C(C)(C)O4)n2)cc(OC)c1OC [Tamatinib] + CC1(C)NC(=O)N(c2ccc([N+](=O)[O-])c(C(F)(F)F)c2)C1=O [nilutamide] (first compound 0.4 µM, partner dose 1 µM) | 89.2% | 91.7% | 67.6% | 77.3% | 110% | 116%
O=C(Nc1cccc(Cl)c1)Nc1ncc(CCNc2ncnc3ccsc23)s1 + Oc1nc(-c2ccc(C(F)(F)F)cc2)nc2c1CSCC2 [XAV939] (first compound 0.0008 µM, partner dose 2 µM) | 73.5% | 67.9% | 75% | 104% | 108% | 103%
CC1(C)NC(=O)N(c2ccc([N+](=O)[O-])c(C(F)(F)F)c2)C1=O [nilutamide] + Cc1ccc(NC(=O)c2cccc(N(C)C)c2)cc1NC(=O)c1ccc(O)cc1 [ZM336372] (first compound 1 µM, partner dose 2 µM) | 91.1% | 105% | 72.6% | 95.7% | 116% | 110%
O=c1[nH]nc(Sc2ncc([N+](=O)[O-])s2)n1-c1ccc2c(c1)OCCO2 + O=c1cc(-c2cccc3c2Sc2ccccc2S3)oc(N2CCOCC2)c1 [KU55933] (first compound 0.2 µM, partner dose 1 µM) | 90.6% | 95.3% | 106% | 80.7% | 87.6% | 87.2%
CC1(C)NC(=O)N(c2ccc([N+](=O)[O-])c(C(F)(F)F)c2)C1=O [nilutamide] + CCCCCCCCCCCC1=C(O)C(=O)C=C(O)C1=O [Embelin] (first compound 1 µM, partner dose 1.2 µM) | 98.1% | 111% | 104% | 110% | 111% | 114%
CC1(C)NC(=O)N(c2ccc([N+](=O)[O-])c(C(F)(F)F)c2)C1=O [nilutamide] + Oc1cc(-c2nc(-c3ccccc3)[nH]c2-c2ccncc2)ccc1Cl [L779450] (first compound 1 µM, partner dose 0.2 µM) | 88.1% | 95.9% | 94.2% | 62% | 201% | 98.6%
CC1(C)NC(=O)N(c2ccc([N+](=O)[O-])c(C(F)(F)F)c2)C1=O [nilutamide] + CN(C)S(=O)(=O)c1ccc2c(c1)/C(=C/c1cc3c([nH]1)CCCC3)C(=O)N2 [SU6656] (first compound 1 µM, partner dose 0.4 µM) | 73.7% | 115% | 107% | 93.5% | 116% | 82.9%
C[C@@H]1CCN(C(=O)CC#N)C[C@@H]1N(C)c1ncnc2[nH]ccc12 + COc1cc2ncnc(Nc3ccc(Oc4ccccc4)cc3)c2cc1OC [SrcI1] (first compound 1 µM, partner dose 2 µM) | 112% | 108% | 84.8% | 85.8% | 117% | 114%
CC1(C)NC(=O)N(c2ccc([N+](=O)[O-])c(C(F)(F)F)c2)C1=O [nilutamide] + O=C(O)C(=O)Nc1sc2c(c1C(=O)O)CCNC2 [TCS401] (first compound 1 µM, partner dose 1.66667 µM) | 78.7% | 104% | 79.7% | 90.3% | 104% | 99.8%
COc1cc(Nc2ncc(F)c(Nc3ccc4c(n3)NC(=O)C(C)(C)O4)n2)cc(OC)c1OC [Tamatinib] + Cc1cc(N2CCOCC2)cc2[nH]c(-c3c(NC[C@@H](O)c4cccc(Cl)c4)cc[nH]c3=O)nc12 [BMS536924] (first compound 0.4 µM, partner dose 0.2 µM) | 77.4% | 99% | 36.4% | 78.2% | 75.9% | 65.6%
O=C(Nc1cccc(Cl)c1)Nc1ncc(CCNc2ncnc3ccsc23)s1 + c1cc(-c2cnn3cc(-c4ccc(OCCN5CCCCC5)cc4)cnc23)ccn1 [Dorsomorphin] (first compound 0.0008 µM, partner dose 0.4 µM) | 76.7% | 113% | 91.9% | 76.4% | 102% | 106%
O=C(O)c1ccc(-c2c[nH]c3ncc(-c4ccccc4)cc23)cc1C1CCCC1 + O=C1NC(=O)/C(=C/c2ccc(-c3ccc(F)cc3O)o2)S1 [AS252424] (first compound 0.16 µM, partner dose 1 µM) | 103% | 102% | 87.1% | 95.7% | 105% | 105%
O=C(Nc1cccc(Cl)c1)Nc1ncc(CCNc2ncnc3ccsc23)s1 + Oc1cc(-c2nc(-c3ccccc3)[nH]c2-c2ccncc2)ccc1Cl [L779450] (first compound 0.0008 µM, partner dose 0.2 µM) | 75.8% | 108% | 88.2% | 86.6% | 92.7% | 111%
